Measured values taken from patent US10988516B2, “Methods and compositions for treating inflammation” (UTI Limited Partnership, priority 2012, dated 2021).

Key:
[1] = tested on: naive 8.3-CD8+ T-cells; test: Agonistic activity of peptides on naive 8.3-CD8+ T-cells (CD44/CD69 expression); settings: naive 8.3-CD8+ T-cells cultured with peptide for 24 h
[2] = tested on: BacIYL-pulsed targets; test: Killing of peptide-pulsed targets by differentiated 8.3-CTL; assay type: cell-based; settings: differentiated 8.3-cytotoxic T-lymphocytes
[3] = tested on: 8.3-CD8+ T-cells
Protocol: A and B, Phenotype of 8.3-CD8+ T-cells 28 days after culture in the presence of peptide-pulsed (10 or 0.001 ug/ml) DCs. […] C, Intracellular IFNγ content in response to peptide challenge. […] D, Secretion of IFNγ by, and proliferation of memory-like 8.3-CD8+ T-cells (induced by BacIYL) in response to peptide challenge.
Because low-avidity autoreactive T-cells tend to differentiate into memory-like anergic (non-proliferating, but cytokine-secreting) autoregulatory (autoimmune disease-suppressing) T-cells in response to chronic autoantigenic stimulation, it was contemplated that Bac-IYL might be able to induce memory-like 8.3-CD8+ T-cells in vitro.

[4] = tested on: 8.3-CD8+ T-cells; test: Antagonism assay of IGRP206-214-induced 8.3-CD8+ T-cell responses; settings: peptide presented in isolation
[5] = tested on: naive 8.3-CD8+ T-cells; settings: in the presence of LPS

IGRP206-214: epitope expressed by pancreatic beta cells; positive control agonist of 8.3-CD8+ T-cells (VYLKTNVFL) [reference compound]
upregulation of CD44 and CD69 [1]: elicited upregulation of both CD44 and CD69

IYLKTNVYL (listed as Bacteroides sp.) [BacIYL]
killing of peptide-pulsed targets by 8.3-CTL [2]: do not kill
upregulation of CD44 and CD69 [1]: only able to induce CD69 upregulation
IFNg production in response to agonist (IGRP206-214)-pulsed DCs ([3]; 8.3-CD8+ T-cells after 28 days culture with peptide): rapidly produced IFNg
proliferation in response to peptide challenge ([3]; 8.3-CD8+ T-cells after 28 days culture with peptide, compared to naive 8.3-CD8+ T-cells): proliferative unresponsiveness (anergy)
phenotype of 8.3-CD8+ T-cells (CD44, CD62L, CD69, CD122) ([3]; cultured in the presence of peptide for 28 days): expressed the late T-cell activation marker CD44 and low levels of the naive T-cell marker CD62L
concentrations antagonizing IGRP206-214-induced responses (IFNγ secretion and proliferation) [4]: above 1 uM
IFNγ and proliferative responses of naive 8.3-CD8+ T-cells [5]: efficient IFNγ and proliferative responses
